According to the supplement of paper PMC4604168 (melanoma cell lines):
Some of the results follow. Repeats are few or missing, and single values can be far off.

Tests used:
Assay in all cases: cell count relative to DMSO control; melanoma cells; higher = more viable cells
Details in all cases: library dose: low library concentration; 72 h
MZ2-MEL = tested on: MZ2-MEL
MeWo = tested on: MeWo
RPMI7951 = tested on: RPMI7951
RVH-421 = tested on: RVH-421
SkMel28 = tested on: SkMel28
SkMel2 = tested on: SkMel2
SkMel30 = tested on: SkMel30
SkMel5 = tested on: SkMel5
UACC257 = tested on: UACC257
UACC62 = tested on: UACC62
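Also: cell number obtained by counting DAPI-stained nuclei in high-throughput microscope images with image analysis software, screen run in 1,536-well plates.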

**Q.** How did the cell count (MZ2-MEL) turn out when `CS(=O)(=O)CCNCc1ccc(-c2ccc3ncnc(Nc4ccc(OCc5cccc(F)c5)c(Cl)c4)c3c2)o1` [lapatinib] + Cn1cncc1[C@@](N)(c1ccc(Cl)cc1)c1ccc2c(c1)c(-c1cccc(Cl)c1)cc(=O)n2C [tipifarnib] (first compound 0.8 µM, partner dose 0.01 µM) was run?
**A.** Its cell count is 109%.

**Q.** What about the cell count (MeWo) of the same compound?
**A.** The cell count was 89.3%.

**Q.** What about the cell count (RPMI7951) of the same compound?
**A.** Its cell count is 92.9%.

**Q.** And the cell count (RVH-421)?
**A.** The cell count was 79.9%.

**Q.** And the cell count (SkMel28)?
**A.** The cell count was 84.9%.

**Q.** And the cell count (SkMel2)?
**A.** Its cell count is 79.4%.

**Q.** What about the cell count (SkMel30) of the same compound?
**A.** Its cell count is 105%.

**Q.** What about the cell count (SkMel5) of the same compound?
**A.** The cell count was 110%.

**Q.** And the cell count (UACC257)?
**A.** Its cell count is 68.2%.

**Q.** What about the cell count (UACC62) of the same compound?
**A.** Its cell count is 75.5%.

**Q.** For `CN1CCN(c2ccc3nc(-c4c(N)c5c(F)cccc5[nH]c4=O)[nH]c3c2)CC1` [Dovitinib] + CC(C)(C)c1cnc(CSc2cnc(NC(=O)C3CCNCC3)s2)o1 [SNS-032] (first compound 0.1 µM, partner dose 0.01 µM), which cell count (MZ2-MEL) is on record?
**A.** Its cell count is 88.2%.

**Q.** And the cell count (MeWo)?
**A.** Its cell count is 95.5%.

**Q.** What about the cell count (RPMI7951) of the same compound?
**A.** Its cell count is 100%.

**Q.** And the cell count (RVH-421)?
**A.** Its cell count is 102%.

**Q.** And the cell count (SkMel28)?
**A.** Its cell count is 108%.

**Q.** What about the cell count (SkMel2) of the same compound?
**A.** Its cell count is 97.4%.

**Q.** And the cell count (SkMel30)?
**A.** The cell count was 82.8%.

**Q.** What about the cell count (SkMel5) of the same compound?
**A.** Its cell count is 95.1%.

**Q.** And the cell count (UACC257)?
**A.** The cell count was 109%.

**Q.** And the cell count (UACC62)?
**A.** Its cell count is 83.7%.

**Q.** With `C=CCNC1=C2C[C@@H](C)C[C@H](OC)[C@H](O)[C@@H](C)/C=C(\C)[C@H](OC(N)=O)[C@@H](OC)/C=C\C=C(/C)C(=O)NC(=CC1=O)C2=O` [Tanespimycin] + Cc1cc([N+](=O)[O-])ccc1NS(=O)(=O)c1cc(Cl)ccc1Cl [FH535] (first compound 0.002 µM, partner dose 1 µM) as the compound, how does the cell count (MZ2-MEL) read?
**A.** The cell count was 99.1%.

**Q.** What about the cell count (MeWo) of the same compound?
**A.** The cell count was 95.1%.

**Q.** And the cell count (RPMI7951)?
**A.** The cell count was 88.9%.

**Q.** What about the cell count (RVH-421) of the same compound?
**A.** Its cell count is 101%.

**Q.** And the cell count (SkMel28)?
**A.** The cell count was 95.5%.

**Q.** What about the cell count (SkMel2) of the same compound?
**A.** Its cell count is 101%.

**Q.** What about the cell count (SkMel30) of the same compound?
**A.** Its cell count is 110%.

**Q.** What about the cell count (SkMel5) of the same compound?
**A.** The cell count was 84.8%.

**Q.** What about the cell count (UACC257) of the same compound?
**A.** The cell count was 98.7%.

**Q.** What about the cell count (UACC62) of the same compound?
**A.** Its cell count is 89.4%.

**Q.** Which cell count (MZ2-MEL) does the source give for `CS(=O)(=O)CCNCc1ccc(-c2ccc3ncnc(Nc4ccc(OCc5cccc(F)c5)c(Cl)c4)c3c2)o1` [lapatinib] + O=C(CCCCCCC(=O)Nc1ccccc1)NO [vorinostat] (first compound 0.8 µM, partner dose 0.08 µM) here?
**A.** The cell count was 99.4%.

**Q.** What about the cell count (MeWo) of the same compound?
**A.** Its cell count is 95.7%.

**Q.** What about the cell count (RPMI7951) of the same compound?
**A.** The cell count was 87.8%.

**Q.** What about the cell count (RVH-421) of the same compound?
**A.** The cell count was 92.3%.

**Q.** And the cell count (SkMel28)?
**A.** Its cell count is 86.1%.

**Q.** And the cell count (SkMel2)?
**A.** Its cell count is 104%.

**Q.** And the cell count (SkMel30)?
**A.** The cell count was 77.7%.

**Q.** And the cell count (SkMel5)?
**A.** The cell count was 89.3%.

**Q.** And the cell count (UACC257)?
**A.** The cell count was 98.3%.

**Q.** What about the cell count (UACC62) of the same compound?
**A.** Its cell count is 87.2%.

**Q.** Which results are given for `C=CCNC1=C2C[C@@H](C)C[C@H](OC)[C@H](O)[C@@H](C)/C=C(\C)[C@H](OC(N)=O)[C@@H](OC)/C=C\C=C(/C)C(=O)NC(=CC1=O)C2=O` [Tanespimycin] + COc1ccc2c(c1)CCC1C2CCC2(C)C(NCCCCCCN3C(=O)C=CC3=O)CCC12 [U73122] (first compound 0.002 µM, partner dose 0.4 µM)?
**A.** cell count (MZ2-MEL): 97%; cell count (MeWo): 97.9%; cell count (RPMI7951): 80.4%; cell count (RVH-421): 112%; cell count (SkMel28): 95.5%; cell count (SkMel2): 92.8%; cell count (SkMel30): 94.9%; cell count (SkMel5): 92.7%; cell count (UACC257): 103%; cell count (UACC62): 95.2%

**Q.** Which cell count (MZ2-MEL) does the source give for `C[C@@H](Oc1cc(-c2cnn(C3CCNCC3)c2)cnc1N)c1c(Cl)ccc(F)c1Cl` [Crizotinib] + CCCCCCCCCCCC1=C(O)C(=O)C=C(O)C1=O [Embelin] (first compound 0.2 µM, partner dose 1.2 µM) here?
**A.** The cell count was 102%.

**Q.** And the cell count (MeWo)?
**A.** The cell count was 101%.

**Q.** What about the cell count (RPMI7951) of the same compound?
**A.** The cell count was 111%.

**Q.** And the cell count (RVH-421)?
**A.** The cell count was 137%.

**Q.** What about the cell count (SkMel28) of the same compound?
**A.** The cell count was 108%.

**Q.** And the cell count (SkMel2)?
**A.** Its cell count is 103%.

**Q.** What about the cell count (SkMel30) of the same compound?
**A.** The cell count was 107%.

**Q.** And the cell count (SkMel5)?
**A.** The cell count was 108%.

**Q.** And the cell count (UACC257)?
**A.** The cell count was 111%.

**Q.** What about the cell count (UACC62) of the same compound?
**A.** Its cell count is 105%.

**Q.** Which results are given for `CNC(=O)c1cc(Oc2ccc(NC(=O)Nc3ccc(Cl)c(C(F)(F)F)c3)cc2)ccn1` [sorafenib] + COC(=O)c1sccc1S(=O)(=O)Nc1ccc(Nc2ccccc2)cc1OC [GSK0660] (first compound 0.4 µM, partner dose 1 µM)?
**A.** cell count (MZ2-MEL): 89%; cell count (MeWo): 90.8%; cell count (RPMI7951): 98.2%; cell count (RVH-421): 105%; cell count (SkMel28): 82.7%; cell count (SkMel2): 96.6%; cell count (SkMel30): 87.8%; cell count (SkMel5): 113%; cell count (UACC257): 80.3%; cell count (UACC62): 76.9%

**Q.** How did the cell count (MZ2-MEL) turn out when `CNC(=O)c1cc(Oc2ccc(NC(=O)Nc3ccc(Cl)c(C(F)(F)F)c3)cc2)ccn1` [sorafenib] + Cc1ccc(NC(=O)c2cccc(N(C)C)c2)cc1NC(=O)c1ccc(O)cc1 [ZM336372] (first compound 0.4 µM, partner dose 2 µM) was run?
**A.** The cell count was 100%.

**Q.** And the cell count (MeWo)?
**A.** Its cell count is 100%.

**Q.** And the cell count (RPMI7951)?
**A.** The cell count was 92.7%.

**Q.** And the cell count (RVH-421)?
**A.** Its cell count is 110%.

**Q.** And the cell count (SkMel28)?
**A.** Its cell count is 99.7%.

**Q.** What about the cell count (SkMel2) of the same compound?
**A.** Its cell count is 88.8%.

**Q.** And the cell count (SkMel30)?
**A.** The cell count was 103%.

**Q.** What about the cell count (SkMel5) of the same compound?
**A.** The cell count was 96.8%.

**Q.** What about the cell count (UACC257) of the same compound?
**A.** The cell count was 101%.

**Q.** What about the cell count (UACC62) of the same compound?
**A.** Its cell count is 95.3%.

**Q.** Which results are given for `CNC(=O)c1cc(Oc2ccc(NC(=O)Nc3ccc(Cl)c(C(F)(F)F)c3)cc2)ccn1` [sorafenib] + COc1ccc2c(c1)CCC1C2CCC2(C)C(NCCCCCCN3C(=O)C=CC3=O)CCC12 [U73122] (first compound 0.4 µM, partner dose 0.4 µM)?
**A.** cell count (MZ2-MEL): 91.2%; cell count (MeWo): 112%; cell count (RPMI7951): 75.1%; cell count (RVH-421): 92.5%; cell count (SkMel28): 106%; cell count (SkMel2): 99.2%; cell count (SkMel30): 77.2%; cell count (SkMel5): 80.8%; cell count (UACC257): 107%; cell count (UACC62): 85.7%

**Q.** With `C=CCNC1=C2C[C@@H](C)C[C@H](OC)[C@H](O)[C@@H](C)/C=C(\C)[C@H](OC(N)=O)[C@@H](OC)/C=C\C=C(/C)C(=O)NC(=CC1=O)C2=O` [Tanespimycin] + Cn1cncc1[C@@](N)(c1ccc(Cl)cc1)c1ccc2c(c1)c(-c1cccc(Cl)c1)cc(=O)n2C [tipifarnib] (first compound 0.002 µM, partner dose 0.01 µM) as the compound, how does the cell count (MZ2-MEL) read?
**A.** Its cell count is 109%.

**Q.** What about the cell count (MeWo) of the same compound?
**A.** The cell count was 81.4%.

**Q.** What about the cell count (RPMI7951) of the same compound?
**A.** Its cell count is 43.5%.

**Q.** What about the cell count (RVH-421) of the same compound?
**A.** Its cell count is 76.1%.

**Q.** What about the cell count (SkMel28) of the same compound?
**A.** Its cell count is 93%.

**Q.** What about the cell count (SkMel2) of the same compound?
**A.** Its cell count is 83.3%.

**Q.** And the cell count (SkMel30)?
**A.** Its cell count is 83.5%.

**Q.** And the cell count (SkMel5)?
**A.** Its cell count is 98.5%.

**Q.** What about the cell count (UACC257) of the same compound?
**A.** Its cell count is 51.8%.

**Q.** What about the cell count (UACC62) of the same compound?
**A.** Its cell count is 78.4%.
